# Measured values as given in the supplement of paper PMC12217912.
# The list shows a part of the results. The full chains were built here from the parent and the listed change. Inactive controls read about 0.05.
# B1: TEV protease; numbered along this chain (parent)
# chain: MGESLFKGPRDYNPISSSICHLTNESDGHTTSLYGIGFGPFIITNKHLFRRNNGTLVVQSLHGVFKVKDTTTLQQHLVDGRDMIIIRMPKDFPPFPQKLKFREPQREERICLVTTNFQTKSMSSMVSDTSCTFPSGDGIFWKHWIQTKDGQCGSPLVSTRDGFIVGIHSASNFTNTNNYFTSVPKNFMELLTNQEAQQWVSGWRLNADSVLWGGHKVFMVKPEEPFQPVKEATQL
# Variants of: B1
# Experiment: raw area under fraction-flipped curve 0-4 h after induction (AUC4h, not background-subtracted), DNA-recorder readout of cleavage of the substrate (dimensionless); higher = more cleavage of the substrate by the protease variant
# Conditions: temperature: 34 °C; time window: 0-4 h after rhamnose induction
# Procedure: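 In vivo DNA recorder in E. coli TOP10(DE3) ΔrhaA at 34 °C. Each TEVp single-site mutant (parent TEVp 0) is paired with a single-site variant of the 7-mer TEVs (canonical ENLYFQ|S). The substrate sits between flexible linkers in a Bxb1-sfGFP-TEVs-SsrA fusion, so cleavage stabilises Bxb1 and speeds flipping of a recombination array, read by NGS. The value is the raw area under the fraction-flipped curve over 0-4 h after rhamnose induction (AUC4h), with ≥20 reads per time point. It is not background-subtracted; inactive controls average about 0.047.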
# 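Further: Bxb1 expression induced with 0.2% (w/v) L-rhamnose at OD600 near 0.5, cultures sampled hourly, flipped fraction per protease–substrate barcode pair counted by paired-end Illumina sequencing.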
Variant,area with substrate ENLYFAS,area with substrate ENLYFES,area with substrate ENLYFFS,area with substrate ENLYFIS,area with substrate ENLYFLS,area with substrate ENLYFNS,area with substrate ENLYFPS,area with substrate ENLYFSS,area with substrate ENLYFWS,area with substrate ENLYFYS,area with substrate ENLYFDS,area with substrate ENLYFGS,area with substrate ENLYFKS,area with substrate ENLYFMS,area with substrate ENLYFRS,area with substrate ENLYFVS,area with substrate ENLYFCS,area with substrate ENLYFHS,area with substrate ENLYFTS
F218G,0.0739,0.0523,0.0823,0.0694,0.0592,0.0495,0.0606,0.0495,0.0605,0.0471,,,,,,,,,
F218H,0.0564,0.0593,0.0604,0.0629,,,0.0588,,,,0.0751,0.0579,0.0969,0.0838,0.0604,0.053,,,
F218S,0.0751,,0.0546,0.0482,,0.0784,0.0561,,0.0574,,0.059,0.059,,0.0833,,0.0134,0.0608,0.0564,0.0489
V200E,0.066,,0.0677,0.0758,0.0512,0.0556,,0.0447,0.0466,,,,,0.0679,,0.0642,0.0447,0.0377,
E223F,0.0627,0.0721,0.0756,0.054,0.0643,,0.0754,0.0707,,,0.0582,0.0701,0.0621,,,,0.0552,0.0357,
P225W,0.0468,0.0665,0.0709,0.0629,0.0637,0.0509,0.047,0.0522,0.0548,,0.0508,0.0619,0.0436,0.075,0.0512,,,,0.0579
P225R,0.0601,0.0676,0.0651,0.0626,0.074,0.0618,0.064,0.0694,0.0536,0.0541,,,0.0484,0.0608,0.0605,0.061,0.0671,0.055,0.0565
P225T,0.0688,,0.0736,0.0585,0.0708,0.073,0.043,0.0594,0.0638,0.0655,,0.0458,0.0701,0.0529,0.0453,0.0705,0.068,,0.0595
E231G,0.0613,0.0604,0.0795,0.06,0.0632,0.0708,0.0539,0.0533,0.0541,,0.06,0.0593,0.0611,0.0686,0.0496,,0.0669,,0.0598
E231M,0.0526,0.0536,0.0592,0.0568,,,0.0649,0.0588,,,0.0684,,,0.064,0.0656,,0.0579,,0.0628
P222V,0.0558,0.0593,0.0927,0.0547,,0.0633,0.0669,0.0621,,0.0627,0.0571,0.0506,0.0631,0.0626,0.053,,0.0412,0.068,0.0607
N45S,,0.0608,0.0719,0.0571,0.0567,0.056,0.0533,,,0.0527,0.0685,0.0513,0.0589,0.0645,0.0625,0.0567,0.0541,0.0551,0.0421
V210G,0.0793,0.095,,0.0519,0.0675,0.0487,0.0629,0.0704,,,,,,0.0541,0.0592,,,0.0156,
V210D,0.0548,0.0609,0.0611,0.0596,,0.059,0.0598,0.0597,,0.0455,0.0696,0.0551,,0.0615,0.063,0.0535,0.0757,0.083,
F226Y,0.0572,0.062,0.0576,0.0547,0.0523,0.0624,0.0608,,0.0418,0.0597,,0.0603,0.0535,,,0.0536,,0.0584,0.0771
T31C,,0.0706,0.0691,0.0563,0.0578,0.057,0.0483,0.0583,0.0539,0.058,0.0581,0.0579,0.0614,0.064,0.0582,0.0545,0.0622,0.0721,0.0548
P9A,,,0.0868,0.0543,,,0.0569,0.0587,0.0547,,,0.0604,,0.065,,0.0685,0.0691,0.0641,
G202V,0.0526,0.0579,0.0669,0.0549,,,0.0621,,,,0.0723,,0.0632,0.0507,,,,0.0454,0.053
E3P,,0.0826,0.0815,0.0093,0.0563,0.08,,0.0694,0.0486,0.0668,0.0666,0.0287,0.061,0.0679,,,0.0476,,
G214K,0.057,0.0616,0.0616,0.0574,,0.0638,0.0426,0.0478,0.0553,,0.0605,0.0493,0.0601,,0.0423,0.0468,,,0.0535
G214M,0.0679,,,0.0528,,,0.0883,,,0.0637,,,0.0592,0.0692,0.0661,0.0656,0.0534,,0.0571
Q227E,0.0566,0.0977,,0.0554,0.0577,0.0667,0.0531,0.0773,0.0503,0.0754,0.0622,,,0.066,0.0541,0.101,0.0823,,0.0547
Q227M,0.0335,0.0654,,0.0543,0.0563,0.0635,0.0604,0.0552,0.0545,0.067,0.0518,,,0.071,0.061,0.054,0.068,0.0662,0.0657
Q227P,0.0069,,0.0545,,,0.0655,0.0561,0.0627,0.0462,0.0394,,,0.0634,,0.0385,,0.0731,,
W212M,0.0619,0.0787,0.0681,0.0483,,,0.0645,,0.0531,0.0567,0.0598,0.0585,,0.0774,0.0524,,,0.0591,0.0394
T44L,,0.0558,0.0682,0.0588,0.0709,0.0565,0.0563,0.0546,0.0346,,0.0538,0.0546,,0.0525,0.0509,0.0852,0.0523,0.0354,
